# Among all 310,000 compounds or so, about 14,000 (4.5%) showed an effect of 50% or more. Effects have a minus sign here. The list shows a part of the results.
# Biological target: human ether-à-go-go-related gene (hERG) potassium channel (human, UniProt Q12809)
# Assay: primary screen, population patch clamp on CHO cells stably expressing hERG
# 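Also: peak tail current of the secondary pulse compared with the same well before compound.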
# Chain of human ether-à-go-go-related gene (hERG) potassium channel (Q12809 whole entry, looked up): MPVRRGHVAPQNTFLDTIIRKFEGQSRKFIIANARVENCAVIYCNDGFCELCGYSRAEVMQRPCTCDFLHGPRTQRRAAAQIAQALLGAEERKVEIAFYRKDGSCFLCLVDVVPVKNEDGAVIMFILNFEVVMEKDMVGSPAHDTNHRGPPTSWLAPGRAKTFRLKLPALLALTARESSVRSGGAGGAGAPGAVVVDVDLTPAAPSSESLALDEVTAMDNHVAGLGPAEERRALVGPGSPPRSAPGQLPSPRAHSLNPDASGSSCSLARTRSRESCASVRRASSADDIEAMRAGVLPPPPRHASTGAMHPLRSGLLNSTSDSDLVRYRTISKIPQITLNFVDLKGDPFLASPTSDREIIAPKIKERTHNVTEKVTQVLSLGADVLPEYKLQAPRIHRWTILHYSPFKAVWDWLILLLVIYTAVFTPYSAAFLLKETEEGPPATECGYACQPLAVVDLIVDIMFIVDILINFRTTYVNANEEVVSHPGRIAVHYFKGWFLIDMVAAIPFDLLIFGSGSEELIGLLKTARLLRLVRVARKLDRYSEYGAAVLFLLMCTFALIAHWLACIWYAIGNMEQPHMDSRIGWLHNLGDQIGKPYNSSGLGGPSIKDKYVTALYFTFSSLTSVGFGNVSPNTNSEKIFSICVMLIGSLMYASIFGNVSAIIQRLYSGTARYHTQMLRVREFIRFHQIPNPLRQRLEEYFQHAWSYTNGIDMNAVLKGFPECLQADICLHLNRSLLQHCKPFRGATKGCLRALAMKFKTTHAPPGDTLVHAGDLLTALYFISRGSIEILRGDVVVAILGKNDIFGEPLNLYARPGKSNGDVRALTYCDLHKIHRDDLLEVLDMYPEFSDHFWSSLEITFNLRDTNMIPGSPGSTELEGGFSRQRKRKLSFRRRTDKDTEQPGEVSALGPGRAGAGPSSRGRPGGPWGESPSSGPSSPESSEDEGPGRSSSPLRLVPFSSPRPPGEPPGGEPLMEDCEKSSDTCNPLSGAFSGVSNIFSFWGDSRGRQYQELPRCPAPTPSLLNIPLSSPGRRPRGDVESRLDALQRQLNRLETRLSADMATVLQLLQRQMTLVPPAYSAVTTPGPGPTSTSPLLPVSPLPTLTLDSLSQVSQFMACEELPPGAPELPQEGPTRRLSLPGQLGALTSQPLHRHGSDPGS
row,SMILES,"hERG current change (%, negative = inhibition) at 10uM [%]"
1,CCOCCn1ccc2c(OCC(=O)NCc3ccccc3)cccc2c1=O,-21.4
2,COc1ccc(CCNC(=O)c2ccc3ccccc3n2)cc1OC,14.1
3,CCC(=O)c1cn(CC(=O)Nc2ccccc2F)c2ccccc12,20.3
4,CCCCn1c(SCC(=O)Nc2cccc(OC)c2)nc2ccc(N3CCOCC3)cc2c1=O,-9.77
5,CCOC(=O)COc1cnc2ccccc2n1,12.7
6,Fc1ccccc1-c1nc(-c2ccccc2)no1,4.72
7,Cc1cc(NC(=O)CSc2nc(-c3cccs3)nc3ccccc23)no1,14.7
8,Clc1ccc(CSc2cc3c(nn2)-c2ccccc2CC3)cc1,23
9,NC(=O)CCN1CCN(Cc2cn[nH]c2-c2cccc3ccccc23)CC1,-24.9
10,COc1cc(/C=N/Nc2nc(-c3ccc(S(=O)(=O)N(C)C)cc3)cs2)ccc1O,2.99
11,CCOC(=O)Cc1csc(NC(=O)CCCc2ccccc2)n1,11.5
12,CCOC(=O)CSc1nc2sc3c(c2c(=O)[nH]1)CC(C)(CC)OC3 (stereo not drawn),18.1
13,Nc1nnc(CSCc2ccccc2)s1,1.46
14,Cc1ccc2nc(C(O)C(O)c3nc4ccc(C)cc4[nH]3)[nH]c2c1 (stereo not drawn),-6.37
15,CCN1C(=O)[C@@H]2[C@@H](c3ccc(-c4ccc(C(C)=O)cc4)c(OC)c3)N3CCC[C@@]3(C(=O)OC)[C@@H]2C1=O.O=C(O)C(F)(F)F,-25
16,CC(C)C[C@H](NC(=O)c1nc[nH]c1C(=O)N[C@@H](CCCCNC(=O)OC(C)(C)C)C(=O)OC(C)(C)C)C(=O)OC(C)(C)C,3.39
17,COc1ccc(-n2c(SCc3ccc(C#N)cc3)nnc2-c2ccccn2)cc1,-58.3
18,Cc1cccc(C)c1NC(=O)CN1CCc2ccccc2C1,8.31
19,O=C(Nc1ccc(OC(F)(F)F)cc1)c1ccc(-n2cncn2)nc1,-6.13
20,Cc1ccc(-n2nnc3c(=O)n(CC(=O)N4CCC(C)CC4)cnc32)cc1,-37.5
21,CCCCN(C(=O)c1cccc(N2C(=O)c3ccccc3C2=O)c1)c1c(N)n(CC(C)C)c(=O)[nH]c1=O,-3.19
22,Cc1cccc(NC(=O)CCC(=O)N/N=C/c2ccco2)c1C,5.02
23,Nc1ccc(Oc2ccc3c(c2)OCO3)cc1,0.709
24,O=C(O)CCC(=O)N1CCC[C@H]1C(=O)O,-16.3

# From article PMC4336329 (PLoS ONE, 2015)
